Some of the results follow. Viral Rep nickase domains cut single-stranded DNA in vitro at 3 µM enzyme and 37 °C for 1 h; the strands have 90 letters, of which the middle is given. Uncut reads are compared with the no-enzyme pool on a log2 scale; uncut sequences lie near 0, cut ones below; no hit call is given. Counts are relative to all reads, so uncut sequences can rise above 0 when many others are cut.
Key:
Experiment in all cases: uncleaved DNA left, log2 of reads against the no-enzyme library (log2 ratio); higher = less cleavage (more negative = more Rep cleavage of the k-mer); sequences stand for … in CTCGTCCG…ACCGGAGA
[1] = system: T1, Rep nickase domain of Muscovy duck circovirus
T1 sequence (Rep 1-111, printed without the tag): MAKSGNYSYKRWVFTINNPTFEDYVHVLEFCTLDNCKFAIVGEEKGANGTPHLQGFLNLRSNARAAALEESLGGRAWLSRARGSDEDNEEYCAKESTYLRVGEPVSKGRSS
Experimental: (§1)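 A pool of 90-nt single-stranded DNAs with seven random bases just before the constant AC of the nick site (name = the seven bases) was cut by 3 µM recombinant His6-SUMO-tagged Rep nickase domain (300 nM DNA, 50 mM HEPES pH 8.0, 50 mM NaCl, 1 mM MnCl2, 1 h, 37 °C, three replicates). Uncut DNA was amplified and sequenced.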

[2] = system: T2, Rep nickase domain of banana bunchy top virus
T2 sequence (Rep 1-94, printed without the tag): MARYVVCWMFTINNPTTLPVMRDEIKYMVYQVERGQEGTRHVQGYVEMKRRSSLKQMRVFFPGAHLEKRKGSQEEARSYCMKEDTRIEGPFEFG
Experimental: as §1

[3] = system: T3, Rep nickase domain of cabbage leaf curl virus
T3 sequence (Rep 1-116, printed without the tag): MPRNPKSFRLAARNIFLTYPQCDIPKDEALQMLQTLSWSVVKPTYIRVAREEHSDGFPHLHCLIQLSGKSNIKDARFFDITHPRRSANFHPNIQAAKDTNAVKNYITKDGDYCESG
Experimental: as §1

[4] = system: T4, Rep nickase domain of chickpea chlorotic dwarf virus
T4 sequence (Rep 1-124, printed without the tag): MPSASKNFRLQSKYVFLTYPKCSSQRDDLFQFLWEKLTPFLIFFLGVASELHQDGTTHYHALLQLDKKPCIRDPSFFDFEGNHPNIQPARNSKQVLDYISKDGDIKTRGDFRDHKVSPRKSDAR
Experimental: as §1

[5] = system: T5, Rep nickase domain of faba bean necrotic yellows virus
T5 sequence (Rep 1-98, printed without the tag): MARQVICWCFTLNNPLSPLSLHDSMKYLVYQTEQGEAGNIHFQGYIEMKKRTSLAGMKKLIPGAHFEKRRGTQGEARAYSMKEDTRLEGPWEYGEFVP
Experimental: as §1

[6] = system: T6, Rep nickase domain of maize striate mosaic virus
T6 sequence (Rep 1-117, printed without the tag): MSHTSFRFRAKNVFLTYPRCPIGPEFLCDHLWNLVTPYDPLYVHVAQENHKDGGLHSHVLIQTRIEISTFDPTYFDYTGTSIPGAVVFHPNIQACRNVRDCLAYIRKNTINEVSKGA
Experimental: as §1

[7] = system: T7, Rep nickase domain of porcine circovirus 2
T7 sequence (Rep 2-116, printed without the tag): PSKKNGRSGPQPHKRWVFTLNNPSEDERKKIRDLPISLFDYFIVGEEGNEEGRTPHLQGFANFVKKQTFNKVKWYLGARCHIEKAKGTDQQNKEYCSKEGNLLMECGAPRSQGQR
Experimental: as §1

[8] = system: T8, Rep nickase domain of tomato yellow leaf curl virus
T8 sequence (Rep 1-136, printed without the tag): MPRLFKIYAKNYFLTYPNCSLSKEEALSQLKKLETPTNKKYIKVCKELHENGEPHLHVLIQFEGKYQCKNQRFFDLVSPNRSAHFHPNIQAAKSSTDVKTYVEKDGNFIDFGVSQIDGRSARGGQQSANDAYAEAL
Experimental: as §1

[9] = system: T9, Rep nickase domain of wheat dwarf virus
T9 sequence (Rep 1-137, printed without the tag): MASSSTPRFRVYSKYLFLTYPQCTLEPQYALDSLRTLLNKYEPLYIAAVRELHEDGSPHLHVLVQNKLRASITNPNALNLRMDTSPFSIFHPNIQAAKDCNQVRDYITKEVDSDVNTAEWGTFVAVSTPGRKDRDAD
Experimental: as §1

Sequence	uncleaved DNA left (log2) [1]	uncleaved DNA left (log2) [2]	uncleaved DNA left (log2) [3]	uncleaved DNA left (log2) [4]	uncleaved DNA left (log2) [5]	uncleaved DNA left (log2) [6]	uncleaved DNA left (log2) [7]	uncleaved DNA left (log2) [8]	uncleaved DNA left (log2) [9]
AGCGTAG	0.0222	0.0374	-0.103	0.434	-0.012	0.477	0.0762	0.0237	0.0728
TCGAACA	0.00801	0.21	0.106	-1.28	0.154	-0.311	-0.12	0.227	0.0202
CTTTAGC	0.14	-0.11	0.0377	0.252	0.123	-0.371	0.117	0.0867	-0.0241
GTAGAGC	0.0917	0.0278	0.136	0.532	0.0135	-0.0768	0.0437	-0.0121	0.148
ACAAGAG	-0.0328	-0.0444	-0.655	0.207	0.0665	-0.75	0.197	0.0264	-0.0991
GAACGCA	0.00827	0.0609	0.0704	-0.229	0.0535	0.0558	0.0505	-0.0506	0.124
GGAACAA	0.033	0.0549	0.831	2	-0.0685	2.15	0.146	-0.0271	0.086
AAGATCT	-0.0113	-0.381	-0.179	-2.39	-0.0764	0.224	-3.56	0.017	0.0415
GACCTAA	0.165	0.0864	0.227	0.356	0.116	0.551	-0.0978	0.127	0.00387
TGTCTCT	0.0613	-0.0608	0.182	-0.891	0.0353	0.461	-0.247	-0.00956	-0.141
TCGATGC	-0.0661	-0.0296	-0.328	-0.556	-0.0511	-1.17	0.079	-0.00148	-0.0651
GGTGTAA	0.0705	0.138	0.567	0.97	0.00978	2.03	0.12	0.115	0.206
TCGTTTT	-2.57	-0.408	-0.75	-2.02	-0.694	-0.306	-3.74	-0.0572	-0.236
GCATGCT	-0.415	-0.0701	-0.818	-0.945	0.0279	-0.841	-0.778	0.0743	-0.0591
ACATATG	0.0103	0.0578	-0.638	-0.312	0.0679	-0.82	0.157	0.0924	-0.0726
ATGTCGT	0.000585	-0.076	-0.863	-0.756	-0.00431	-1.08	-0.708	0.0173	-0.168
CGTAACT	0.00467	-0.109	-0.253	-2.09	-0.0172	-0.122	-0.511	-0.0809	0.0639
CGCCGGC	0.0225	0.0632	0.36	0.346	0.145	0.12	0.105	0.025	0.00865
GGGAATG	0.0374	0.155	0.713	1.88	-0.0415	2.15	0.22	0.0606	0.205
ATTAACA	-0.0442	0.0595	-0.504	-2.22	-0.0512	-0.702	-0.036	0.0765	0.0809
CCTTTCG	0.0508	0.0877	-0.715	0.539	0.0533	-0.573	0.18	0.0919	0.106
CACTGGA	-0.0194	-0.101	-0.0339	0.08	0.0676	-0.0902	-0.991	-0.0395	0.0793
TGCACGT	0.0717	-0.0116	-0.0458	0.0466	-0.0773	-0.305	0.0311	-0.0327	0.0338
TTAGTAG	0.00573	-0.0904	-0.564	-0.947	0.0926	-1.31	0.13	0.0164	-0.105
TTCAATC	0.0751	0.228	0.647	1.68	0.0879	2	0.0594	0.212	0.313
TCAGGGG	0.0909	-0.0284	0.226	0.643	0.0304	0.18	0.228	0.0227	0.0913
TCTCATT	-0.302	-0.174	-0.392	-2.26	-0.000821	-0.871	-1.67	0.0364	-0.0384
GGTGCAT	-0.0399	0.0974	0.847	1.99	0.0758	2.28	0.182	0.0193	0.182
